Laboratory results reported in ChEMBL document CHEMBL1201862, “PubChem BioAssay data set” (2004).
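How tested: cells in 96-well plates exposed to compound for 48 hours at five concentrations. At the GI50, growth is halved.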 Calls of active or inactive are those of the source. No stated cut-off is given here; in the data, active = GI50 up to about 1.1 µM and inactive = higher.

System: NCI-H322M
Assay: NCI anticancer screen, dose series, 48 h

Row | Compound | GI50
1 | OC(c1cccs1)c1cc2ccccc2s1 (stereo not given) | inactive: > 10 µM
2 | CC(=O)OC12c3ccccc3-c3ccccc3C1C1C(=O)OC(=O)C12 (stereo not given) | inactive: > 10 µM
3 | COc1ccc(C(=O)N2CCN(c3ccc4[nH]c(=O)oc4c3)CC2)cc1 | inactive: > 100 µM
4 | O=C(O)CC1NC(/C(=C/c2ccccc2O)NC(=O)c2ccccc2)OC1=O (stereo not given) | inactive: > 100 µM
5 | COc1ccc(N2C(=O)C3c4[nH]c5ccccc5c4C4CCCCCCCCCCC4C3C2=O)cc1 (stereo not given) | inactive: 10.3 µM
6 | COc1ccc(C2Oc3cc(OC)c(O)cc3[C@@H]2C)cc1 (stereo not given in full) | inactive: 70.5 µM
7 | O=C(/C=C\c1ccc([N+](=O)[O-])cc1)c1ccccc(=O)c1O | inactive: 1.32 µM
8 | CC(=O)Nc1ccc(-c2nc3ccccc3s2)cc1I | inactive: 31.8 µM
9 | C/C(=C\COc1ccc2ccc(=O)oc2c1)CCC(=O)C(C)(C)O | inactive: 45.7 µM
10 | C=CCNC1=C2C[C@@H](C)C[C@@H](OC)[C@H](OC(=O)CN(C)C)[C@H](C)/C=C(\C)[C@@H](OC(N)=O)[C@H](OC)/C=C\C=C(/C)C(=O)NC(=CC1=O)C2=O | inactive: 3.57 µM
11 | Cc1ccc(S(=O)(=O)N2CCC(C(=O)O)(c3ccccc3)CC2)cc1 | inactive: > 100 µM
12 | CC(=O)On1c(-c2ccccc2-c2nc3ccccc3n2OC(C)=O)nc2ccccc21 | inactive: 54 µM
13 | Clc1cccc2[nH]ncc12 | inactive: > 100 µM
14 | C/C(=C\CC[C@]1(C)OC(C)(C)OC1CC/C(C)=C/CO[Si](c1ccccc1)(c1ccccc1)C(C)(C)C)CC/C=C/CO[Si](C)(C)C(C)(C)C (stereo not given in full) | inactive: > 100 µM
15 | NC(=O)CSc1c2cc(O)ccc2nc2ccc(O)cc12 | inactive: > 10 µM
16 | N#CCC(=O)N1CCCCCCC1 | inactive: > 100 µM
17 | O=S(=O)(NCn1ccc2ccccc21)c1ccccc1 | inactive: > 100 µM
18 | C#CCOCn1cnc2c(S)ncnc21 | inactive: > 100 µM
19 | COC(=O)c1c(OC)cc2cc3c(c(O)c2c1C)C(=O)C1(O)C(=O)C=C(OC)C(OC(=O)CC(C)N)=C1C3=O (stereo not given) | inactive: 10.9 µM
20 | Cc1cccc2c3ccc4c(c3n(C)c12)C(=O)C=CC4=O | inactive: > 100 µM
21 | N=C(N)C1=C(O)NC(=O)N(C2CCCCC2)C1 | inactive: > 100 µM
22 | O=C1OC(=O)C2C1C1(c3ccccc3)OC2(c2ccccc2)c2c(Br)c(Br)c(Br)c(Br)c21 (stereo not given) | inactive: > 100 µM
23 | COC(=O)c1s/c(=N\C(=S)N(C)C)n(-c2ccc(Cl)cc2)c1C(=O)OC | inactive: > 100 µM

Row | Compound | GI50
24 | C=C[C@@H]1OC(=O)O[C@H]1CO | inactive: > 100 µM
25 | O=C(Cc1ccc(Cl)c(Cl)c1)NCC1(N2CCCCC2)CCCCC1 | inactive: > 100 µM
26 | CN1C(=O)C23CCCC2CC1(c1ccccc1)S3 (stereo not given) | inactive: > 100 µM
27 | Brc1cccc(C2ON=C(c3ccccc3)N2C23CC4CC(CC(C4)C2)C3)c1 (stereo not given) | inactive: > 10 µM
28 | Cc1nc2cc(Cl)c(N)cc2[nH]1 | inactive: > 100 µM
29 | CN(C)/C=N\c1cc[nH]c(=O)n1 | inactive: > 100 µM
30 | COc1cc2c(c(N)c1OC)C(=O)/C(=C/c1cc(C)c(O)c(C)c1)C2 | active: < 0.01 µM
31 | CC(C)C1=CC2=CC[C@@H]3[C@](C)(CCC[C@@]3(C)C(=O)O)[C@H]2CC1 [ABIETIC ACID] | inactive: 65.3 µM
32 | C/C=C(\C)c1cc(=O)c2c(C)cc3c(c2o1)C(=O)c1c(O)c(C2CC(C)(N(C)C)C(OC(C)=O)C(C)O2)cc(C2CC(N(C)C)C(O)C(C)O2)c1C3=O (stereo not given) | inactive: 1.36 µM
33 | O=C(O)[C@H](c1ccccc1)[C@@H](C(=O)O)c1ccccc1 | inactive: > 100 µM
34 | CCN(CC)CCN1c2ccccc2Sc2ccc3ccccc3c21 | inactive: 10.5 µM
35 | O=[N+]([O-])c1ccc(C[P+](c2ccccc2)(c2ccccc2)c2ccccc2)cc1 | inactive: > 100 µM
36 | CN1C(=O)CC(CC(=O)C2CCCCC2=O)CC1=O (stereo not given) | inactive: > 100 µM
37 | Cc1nc2ccc(Br)cc2c(=O)n1-c1ccc(NC2OCC(O)C(O)C2O)cc1 (stereo not given) | inactive: > 100 µM
38 | COc1cc(C2CC(C)(O)Oc3cc4c(cc32)OCO4)cc(OC)c1OC (stereo not given) | active: 0.474 µM
39 | Cc1c(C(=O)c2ccc(N)c3ccccc23)c2ccccc2n1CCN1CCOCC1 | inactive: 5.93 µM
40 | NNC(=O)/C(NC(=O)c1ccccc1)=C(\N)c1ccc(Cl)cc1 | inactive: > 100 µM
41 | Cc1ccc(NC(=O)CC/C(CC(=O)C(C)(C)C)=N\Nc2ccc([N+](=O)[O-])cc2[N+](=O)[O-])cc1C | inactive: > 100 µM
42 | CCC(=S)N(C)O | inactive: 32.8 µM
43 | C=CCn1c2c(c3ccccc3c1=O)C(=O)c1ccccc1-2 | inactive: > 100 µM
44 | C=C[C@]1(O[Si](C)(C)C)C[C@@]2(C(=O)OCC)C(O)C(=O)N3CCc4cc(OC)c(OC)cc4[C@]312 (stereo not given in full) | inactive: > 100 µM
45 | COc1ccc2c(c1)c(=O)c1ccccc1n2/C=C/C(=O)O | inactive: > 100 µM
46 | COc1ccc(C(=O)/C=C2\c3ccccc3C(=O)N2C)cc1 | inactive: 49.3 µM

Row | Compound | GI50
47 | CCCCn1c(C)c2c(c1C)C(=O)N(CC(O)CN1CCc3ccccc3C1)C2=O (stereo not given) | inactive: > 100 µM
48 | O=C1CC(c2ccsc2)n2cccc21 (stereo not given) | inactive: > 100 µM
49 | CCCCC(C(=O)N/N=C/c1ccc([N+](=O)[O-])o1)C(=O)N/N=C/c1ccc([N+](=O)[O-])o1 | inactive: 14.9 µM
50 | Cc1ccc(S(=O)(=O)OC(C=O)C(O)C(O)COC(c2ccccc2)(c2ccccc2)c2ccccc2)cc1 (stereo not given) | inactive: 15.8 µM
51 | C[n+]1cn(C2=C([N-]S(=O)(=O)c3ccccc3)C(=O)c3ccccc3C2=O)c2ccccc21 | inactive: 34.2 µM
52 | CCc1n[nH]c(=O)n1-c1ccc2ccccc2c1 | inactive: > 100 µM
53 | CC(=O)Oc1ccc2c(C)cc(=O)oc2c1 | inactive: > 100 µM
54 | O=C1/C(=C/c2ccccc2)CN(C(=O)C(F)(F)F)C/C1=C\c1ccccc1 | inactive: 6.87 µM
55 | O=c1cc(-c2ccccc2)nc(/C=C(\O)c2ccncc2)n1-c1ccccc1 | inactive: > 100 µM
56 | O=C(O)c1cc(CCc2cc(O)ccc2O)ccc1O | inactive: > 100 µM
57 | COc1ccc(N2C(=O)C3c4[nH]c5ccc(OCc6ccccc6)cc5c4C4CCC(C(C)C)CC4C3C2=O)cc1 (stereo not given) | inactive: > 100 µM
58 | O=C1Nc2ccccc2/C1=N/Nc1nc(-c2ccc(Cl)c(Cl)c2)cs1 | inactive: > 100 µM
59 | O=c1c(C(c2ccc(C(c3c(O)oc4cc(O)ccc4c3=O)c3c(O)oc4cc(O)ccc4c3=O)cc2)c2c(O)oc3cc(O)ccc3c2=O)c(O)oc2cc(O)ccc12 | inactive: > 100 µM
60 | CCOc1cc2c(cc1O)/C(=N/NS(=O)(=O)c1ccc(C)cc1)C[C@@H]1[C@@H]2CC[C@]2(C)[C@@H](O)CC[C@@H]12 | inactive: 26.9 µM
61 | Cc1c(C)c2c(c(N)c1C#N)C(=O)N(N)C2=O | inactive: > 100 µM
62 | O=C(Nn1c(-c2ccccc2)nc2ccccc2c1=O)c1ccccn1 | inactive: > 100 µM
63 | C=C1C(=O)OC2CC(C)C3(O)CCC(=O)C3(C)CC12 (stereo not given) | inactive: 59.3 µM
64 | Cc1cc2c(C)nn(Cc3ccc(Cl)cc3)c2c(C#N)c1C | inactive: > 100 µM
65 | CCOc1cc(NC(C)=O)ccc1C(=O)NN1C(=O)C(Cl)C1c1ccc(O)c(OC)c1 (stereo not given) | inactive: 13.7 µM
66 | CCOC(=O)/C(=N/Nc1ccc(C)cc1)N1C(=S)N(C)N=C(C)C=C1S | inactive: > 100 µM
67 | COc1ccc2nc3c(C)cc4ccccc4n3c2c1 | inactive: 92.7 µM
68 | COC(=O)Cc1cc(O)c(C/C=C(\C)CC/C=C(\C)C(O)C(=O)C=C(C)C)cc1O (stereo not given) | inactive: 31.7 µM
69 | O=C1C=C[C@@]23CC1C(O)C[C@H]2C=Cc1ccccc13 (stereo not given in full) | inactive: > 100 µM

Row | Compound | GI50
70 | CCOC(=O)/C(C#N)=N\Nc1ccc(-n2c(C)nc3ccc(Br)cc3c2=O)cc1 | inactive: 95.9 µM
71 | O=[N+]([O-])c1ccc2c3c1[C@@H]1O[C@@H]1c1cccc(c1-3)[C@@H]1O[C@H]21 | inactive: 12.5 µM
72 | COc1ccc(/C=c2/[nH]c(=O)/c(=C\c3ccc(OCc4ccccc4)cn3)[nH]c2=O)cc1 | inactive: 48.5 µM
73 | CC(O)C1OC(O)C2OC(C)(C)OC12 (stereo not given) | inactive: > 100 µM
74 | COc1cc2c(c(OC)c1OC)-c1ccc(SC)c(=O)cc1[C@@H](NCc1ccc(C#N)cc1)CC2 | active: 0.00405 µM
75 | COc1ccc2c(c1OC)C(=O)c1cnccc1C2=O | inactive: > 100 µM
76 | O=C1OC(c2ccc([N+](=O)[O-])cc2)=N/C1=C\c1ccc(O)cc1 | inactive: > 100 µM
77 | O=C(c1ccco1)N(Cc1cccnc1)C(=S)N(Cc1cccnc1)C(=O)c1ccco1 | inactive: 18.6 µM
78 | O=C1c2ccccc2-c2ccccc2C(=O)C1(Br)Br | inactive: 17.9 µM
79 | NCC#CCNCCCN1CC1 | inactive: > 100 µM
80 | CC1CC[C@@]2(OC1)OC1CC3C4CCC5C[C@@H](OC6OC(CO)C(OC7OC(CO)C(O)C(OC8OC(CO)C(O)C(OC9OC(CO)C(O)C(O)C9O)C8O)C7OC7OC(CO)C(O)C(O)C7O)C(O)C6O)[C@H](O)C[C@]5(C)C4CC[C@]3(C)C1[C@@H]2C (stereo not given in full) | inactive: > 80.5 µM
81 | CCSc1nc(N2CCCC2)s[s+]1.[O-][Cl+3]([O-])([O-])[O-] | inactive: 81.8 µM
82 | Cc1cc2c(c(C#N)c1C)NC(=O)CCC2=O | inactive: > 100 µM
83 | CC(=O)OCC1OC(Sc2nc(-c3ccccc3)c(C#N)c(=O)n2C2OC(COC(C)=O)C(OC(C)=O)C(OC(C)=O)C2OC(C)=O)C(OC(C)=O)C(OC(C)=O)C1OC(C)=O (stereo not given) | inactive: > 100 µM
84 | C/C(=N\NC(=S)NCCCNC(=S)N/N=C(\C)c1ccccn1)c1ccccn1 | inactive: 2.62 µM
85 | CCc1c(-c2ccc(OC)cc2)c(=O)oc2cc(O)ccc12 | inactive: 35.7 µM
86 | Cc1cc(C)n(CN(Cn2nc(C)cc2C)C2CCCCC2)n1 | inactive: > 100 µM
87 | O=C1NC(N2CCOCC2)=N/C1=C\c1ccc(Cl)cc1 | inactive: > 100 µM
88 | N[C@@H](CCC(=O)NC(Cc1ccccc1)C(=O)NCP(=O)(O)O)C(=O)O (stereo not given in full) | active: 0.0551 µM
89 | Cc1cn(S(=O)(=O)c2ccccc2)c2c(OCc3ccccc3)cc(NC(=O)c3cc4cc([N+](=O)[O-])ccc4s3)cc12 | inactive: > 100 µM
90 | O=C(CCc1n[nH]c(=S)o1)Nc1ccc(Cl)cc1Cl | inactive: > 100 µM
